Assay results from PubChem BioAssay AID504332 (National Center for Advancing Translational Sciences (NCATS), 2011).
The campaign covered roughly 350,000 compounds. About 31,000 (8.9%) were called active. Inconclusive means that the source gave no clear call. Such entries were picked first, then a sample of the others. The call rests on the fitted dose curve; in most records, active means well fitted inhibition curve with a large enough effect; inconclusive means small, poorly fitted or top-dose-only effect; inactive means no such curve, though single readings can be large or run the other way. Potencies beside an inconclusive call are fits to weak or partial responses and may not hold up.

biological target: Histone-lysine N-methyltransferase EHMT2 (Homo sapiens) (UniProt Q96KQ7); test: qHTS Assay for Inhibitors of Histone Lysine Methyltransferase G9a; conditions: G9a H3K9 monomethylation, AlphaScreen, 2 h; activity, negative = inhibition: at 59 µM (top of the series) unless noted; further: nearly all actives have a fitted effect of over 75% in size
Summary of the method: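 Compounds were preincubated with 20 nM G9a for 15 min, after which biotinylated H3K9 peptide (500 nM) and SAM (20 uM) started a 2 h room-temperature reaction. Monomethylated product was quantified by antibody-based AlphaScreen chemiluminescence.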
On the % scale 0 is the no-effect control and ±100 the full control effect; potency means the concentration at half of the fitted maximal effect; tags describe the fitted curve by direction and shape.

Sequence of UniProt Q96KQ7 (Q96KQ7 whole entry, looked up): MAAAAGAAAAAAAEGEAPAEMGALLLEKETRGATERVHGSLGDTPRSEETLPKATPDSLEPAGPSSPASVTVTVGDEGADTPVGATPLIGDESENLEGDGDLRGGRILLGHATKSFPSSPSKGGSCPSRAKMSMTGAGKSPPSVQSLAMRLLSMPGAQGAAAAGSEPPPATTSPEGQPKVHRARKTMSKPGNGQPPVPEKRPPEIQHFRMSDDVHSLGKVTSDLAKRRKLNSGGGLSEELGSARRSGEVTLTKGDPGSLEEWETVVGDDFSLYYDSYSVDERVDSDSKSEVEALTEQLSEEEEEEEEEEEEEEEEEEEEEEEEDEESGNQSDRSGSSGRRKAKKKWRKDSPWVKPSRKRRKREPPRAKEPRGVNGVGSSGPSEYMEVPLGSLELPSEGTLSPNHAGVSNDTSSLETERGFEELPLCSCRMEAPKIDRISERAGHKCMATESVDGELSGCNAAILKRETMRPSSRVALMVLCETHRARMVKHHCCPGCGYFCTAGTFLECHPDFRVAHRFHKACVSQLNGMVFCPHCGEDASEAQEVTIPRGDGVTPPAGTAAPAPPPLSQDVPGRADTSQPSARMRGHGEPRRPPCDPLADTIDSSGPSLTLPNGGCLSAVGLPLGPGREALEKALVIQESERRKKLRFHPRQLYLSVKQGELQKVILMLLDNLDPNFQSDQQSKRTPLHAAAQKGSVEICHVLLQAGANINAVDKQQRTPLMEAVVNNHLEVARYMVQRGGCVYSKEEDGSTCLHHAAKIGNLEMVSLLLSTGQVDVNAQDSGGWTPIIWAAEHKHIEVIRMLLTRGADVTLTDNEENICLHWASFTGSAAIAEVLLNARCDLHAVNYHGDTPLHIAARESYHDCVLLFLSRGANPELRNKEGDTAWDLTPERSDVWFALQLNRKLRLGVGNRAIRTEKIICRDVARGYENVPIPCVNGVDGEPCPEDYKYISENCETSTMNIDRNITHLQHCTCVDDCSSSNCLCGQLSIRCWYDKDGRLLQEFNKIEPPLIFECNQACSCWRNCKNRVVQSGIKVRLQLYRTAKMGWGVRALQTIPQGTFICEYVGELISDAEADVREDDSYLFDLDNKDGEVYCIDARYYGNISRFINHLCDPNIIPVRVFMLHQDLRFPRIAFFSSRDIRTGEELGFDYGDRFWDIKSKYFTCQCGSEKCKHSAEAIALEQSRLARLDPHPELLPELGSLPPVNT

| SMILES | Potency | activity, negative = inhibition |
| --- | --- | --- |
| CCOC(=O)c1c(NC(=O)C(C)N2CCN(C(=O)c3ccco3)CC2)sc2c1CCCC2 (configuration not stated) | inconclusive: 35.5 µM [inhibitor, single point] |  |
| COCCNC(=O)c1ccc(N2CCCCC2)c(NS(=O)(=O)c2ccc(C)cc2)c1 |  | inconclusive: -73.8% [inhibitor] [at 12.7 µM] |
| CCN(CC)CCCOc1ccc(C)cc1Br | active: 20 µM |  |
| CC(OC(=O)CCC1CCCC1)C(=O)Nc1ccccc1[N+](=O)[O-] (configuration not stated) | inconclusive: 11.2 µM [inhibitor, partial curve, poor fit] |  |
| Oc1ccc2ccccc2c1C=Nc1cc(C(F)(F)F)ccc1N1CCCC1 | active: 7.08 µM |  |
| c1ccc(Nc2nc(NCC3CCCO3)c3ccccc3n2)cc1 (configuration not stated) | inactive |  |
| COc1cc([N+](=O)[O-])ccc1NC(=O)CCCOc1cccc(C)c1 | inconclusive: 20 µM [inhibitor, full curve, poor fit] |  |
| COCCCN1C(=O)N(c2ccc(F)cc2)C(=O)C1CC(=O)Nc1ccc(OC)cc1 (configuration not stated) | inactive |  |
| Cc1cccc(NS(=O)(=O)c2ccc(C)c(NS(=O)(=O)c3cccs3)c2)c1 | inconclusive: 12.6 µM [inhibitor, partial curve, poor fit] |  |
| CCC(=O)N1CCc2cc(Br)cc(S(=O)(=O)N(CC)Cc3ccccc3)c21 | inconclusive: 6.31 µM [inhibitor, single point] |  |
| Cc1cc2nc(/N=C(\N)NC(=O)N3c4ccccc4Sc4ccccc43)nc(C)c2cc1C | active: 50.1 µM |  |
| COc1ccc(CCNC(=O)[C@H](CC(C)C)NC(=O)N2CCn3c2nc2ccccc23)cc1OC | inconclusive: 17.8 µM [inhibitor, partial curve, poor fit] |  |
| O=C(NCS(=O)(=O)c1ccccc1)c1ccccc1 | active: 50.1 µM |  |
| CCCCn1c(N)c(N(CCC(C)C)C(=O)C2CC(=O)N(c3ccccc3OCC)C2)c(=O)[nH]c1=O (configuration not stated) | inactive |  |
| O=C(O)c1cc(NN=Nc2cccc([N+](=O)[O-])c2)cc([N+](=O)[O-])c1 | inconclusive: 28.2 µM [inhibitor, partial curve, poor fit] |  |
| CCCOc1cccc(C2C(C(=O)c3ccco3)=C(O)C(=O)N2CCCn2ccnc2)c1 (configuration not stated) | inconclusive: 89.1 µM [inhibitor, single point] |  |
| COc1ccc(-n2c(=O)c(C)nc3cnc(Oc4ccccc4)nc32)cc1 |  | inactive: 7.69% [at 12.7 µM] |
| Cc1cc(C(=O)N/N=C(\CCC(=O)O)c2cccs2)c2ccccc2n1 | inactive |  |
| CC(C)(C)NC(=O)NC(=O)C[n+]1ccc(Cc2ccc([N+](=O)[O-])cc2)cc1 |  | inactive: -14.6% [at 2.33 µM] |
| CCCc1nc(SCC(=O)N2CCOCC2)c2c(C)c(C)sc2n1 | inactive |  |
| O=C(CNC(=O)c1ccc(F)cc1)c1ccc(Cl)cc1 | inconclusive: 17.8 µM [inhibitor, partial curve, poor fit] |  |
| O=C(N/N=C(\c1ccccc1)c1cccnc1)c1ccc(O)cc1 | inactive |  |
| O=C(N/N=C/c1ccc[nH]1)c1sc2ccccc2c1Cl | inconclusive: 5.62 µM [inhibitor, single point] |  |
| O=C(Nc1ccc(Cl)cc1)C(Cl)C(=O)c1ccccc1 (configuration not stated) | active: 11.2 µM |  |

| SMILES | Potency | activity, negative = inhibition |
| --- | --- | --- |
| CCCCOc1ccc(C(O)(CCC)CCN2CCOCC2)cc1 (configuration not stated) | inconclusive: 89.1 µM [inhibitor, single point] |  |
| CCOc1ccc(S(=O)(=O)NCC(c2ccc(N(C)C)cc2)N2CCc3ccccc32)cc1 (configuration not stated) | inconclusive: 3.55 µM [inhibitor, single point] |  |
| COc1cccc(Nc2nnc(SCC(=O)Nc3sccc3C(N)=O)s2)c1 | inactive |  |
| CCOC(=O)N1CCN(C(=O)CSc2nc(=O)n3ccccc3n2)CC1 |  | inactive: 18.5% [at 2.33 µM] |
| Cc1cc(C2(c3ccc(O)c(C)c3)OC(=O)c3ccccc32)ccc1O | inconclusive: 89.1 µM [inhibitor, single point] |  |
| O=C(Cc1ccccc1)Nc1ccc2oc(-c3ccncc3)nc2c1 | inconclusive: 0.631 µM [inhibitor, full curve, poor fit] |  |
| Cc1sc2nc(-c3ccccn3)[nH]c(=O)c2c1-c1ccccc1 | active: 10 µM |  |
| Cc1cccc(N2CCN(c3ncnc4onc(C)c34)CC2C)c1 (configuration not stated) | inactive |  |
| COc1cccc(C(=O)NCCS(=O)(=O)N2CCCCCC2)c1 | inconclusive: 50.1 µM [inhibitor, partial curve, poor fit] |  |
| Fc1cccc(CN(C2=NCCN2)c2c(Cl)cccc2Cl)c1 | inconclusive: 10 µM [inhibitor, partial curve, poor fit] |  |
| O=C(c1cccs1)N(Cc1ccccn1)Cc1ccco1 | inconclusive: 35.5 µM [inhibitor, full curve, poor fit] |  |
| CCCn1c(/C=C/c2cc[n+](C)cc2)nc2ccccc21 | active: 39.8 µM |  |
| CN(C)c1ccc(NC(=O)C(=O)C2C(=O)Nc3ccccc32)cc1 (configuration not stated) | active: 56.2 µM |  |
| C[N+]1=C(/C=C/Nc2ccccc2Cl)C(C)(C)c2ccccc21 | active: 7.94 µM |  |
| CCCCCCCC[n+]1c(C)n(-c2ccccc2)c2ccc(NC(C)=O)cc21 | active: 39.8 µM |  |
| CCOc1ccc(CCNC(=O)CN2CCN(Cc3ccc(F)cc3)C2=O)cc1OCC | inactive |  |
| COc1ccc(N(CC(=O)NCc2ccc3c(c2)OCO3)S(=O)(=O)c2c(C)nn(C)c2C)cc1 | active: 79.4 µM |  |
| C=CC(C1=CC(=O)C=CC1=O)c1ccccc1 (configuration not stated) |  | inconclusive: -51.4% [inhibitor] [at 2.33 µM] |
| Cc1ccccc1Nc1c(-c2ccc(N3CCOCC3)cc2)nc2ccc(Cl)cn12 | inconclusive: 11.2 µM [inhibitor, partial curve] |  |
| O=C(Nc1ccc2nn(-c3ccc(Cl)cc3)nc2c1)c1cc2ccccc2o1 | inactive |  |
| O=C(NCC1CCNCC1)c1ccncc1 | inconclusive: 31.6 µM [inhibitor, single point] |  |
| O=C(O)CCc1ccc(-c2ccc(Br)cc2)n1Cc1ccco1 |  | inconclusive: -84% [inhibitor] |
| O=C1OCCN1c1c(-c2ccccc2)c(-c2cccs2)nc2c(-c3ccccc3)cccc12 | active: 39.8 µM |  |
